Measurements as given in US20190284262A1 (Memorial Sloan Kettering, published 2019).

Legend:
[1] = biological target: T1, HLA-A*02:01 on T2 cells alone (no peptide added) (human); test: flow cytometry, phage on T2 cells, no peptide
T1 construct: TAP-deficient T2 cells without pulsed peptide; negative control target, and the HLA molecule whose stabilisation by peptides is read in the T2 stabilization assay; also called HLA-A*02 molecule; HLA-A2 molecule

[2] = biological target: T1, HLA-A*02:01 on T2 cells alone (no …); test: flow cytometry, phage on T2 cells
[3] = biological target: T1, HLA-A*02:01 on T2 cells alone (no …); test: flow cytometry, phage on T2 without peptide; secondary only 100, unstained 99.5
[4] = biological target: T2, R3 (RHAMM-R3) peptide/HLA-A*02:01 complex on T2 cells (human); test: flow cytometry, phage on T2 + R3 peptide; secondary only 123, unstained 99.8
T2 construct: Control target of the phage staining of T2 cells; also called T2 cells pulsed with R3 peptide; RHAMM 3 (R3)

[5] = biological target: T3, Foxp3-7 peptide/HLA-A*02:01 complex on the cell surface (human); test: flow cytometry, phage on T2 + Foxp3-7 peptide; secondary only 133, unstained 103
T3 construct: also called Foxp3-7/HLA-A2 complex

[6] = biological target: T1, HLA-A*02:01 on T2 cells alone (no …); test: flow cytometry, phage on T2 without peptide; secondary only 121, unstained 106
[7] = biological target: T4, T2+EW (Homo sapiens, UniProt A*02:01); test: flow cytometry, phage on T2 + EW peptide; secondary only 113, unstained 94.7
T4 construct: on the surface of T2 cells; irrelevant control peptide; also called EW peptide/HLA-A*02:01 complex on T2 cells; T2 pulsed with EW peptide

[8] = biological target: T3, Foxp3-7 peptide/HLA-A*02:01 complex on …; test: flow cytometry, phage on T2 + Foxp3-7 peptide; secondary only 104, unstained 81.7
[9] = biological target: T2, R3 (RHAMM-R3) peptide/HLA-A*02:01 …; test: flow cytometry, phage on T2 + R3 peptide (as the table names the samples); secondary only 109, unstained 80.9
[10] = biological target: T5, 017-mut1 peptide (…)/HLA-A*02:01 complex on T2 cells (human); test: flow cytometry, phage on peptide-loaded T2 cells
T5 construct: Alanine mutant of Foxp3-7 at position 1, pulsed onto T2 cells; also called EXT017-mut1

[11] = biological target: T6, 017-mut4 peptide (…)/HLA-A*02:01 complex on T2 cells (human); test: flow cytometry, phage on peptide-loaded T2 cells
T6 construct: Alanine mutant at position 4

[12] = biological target: T7, 017-mut3 peptide (…)/HLA-A*02:01 complex on T2 cells (human); test: flow cytometry, phage on peptide-loaded T2 cells
T7 construct: Alanine mutant at position 3

[13] = biological target: T8, 017-mut2 peptide (…)/HLA-A*02:01 complex on T2 cells (human); test: flow cytometry, phage on peptide-loaded T2 cells
T8 construct: Alanine mutant at position 2, the anchor position; the peptide may load poorly onto HLA-A2; also called EXT017-mut2

[14] = biological target: T9, 017-mut5 peptide (…)/HLA-A*02:01 complex on T2 cells (human); test: flow cytometry, phage on peptide-loaded T2 cells
T9 construct: Alanine mutant at position 5

[15] = biological target: T10, 017-mut8 peptide (…)/HLA-A*02:01 complex on T2 cells (human); test: flow cytometry, phage on peptide-loaded T2 cells
T10 construct: Alanine mutant at position 8; also called TLI-A8

[16] = biological target: T3, Foxp3-7 peptide/HLA-A*02:01 complex on …; test: flow cytometry, phage on peptide-loaded T2 cells
[17] = biological target: T11, 017-mut7 peptide (…)/HLA-A*02:01 complex on T2 cells (human); test: flow cytometry, phage on peptide-loaded T2 cells
T11 construct: Alanine mutant at position 7

[18] = biological target: T3, Foxp3-7 peptide/HLA-A*02:01 complex on …; test: flow cytometry, phage on T2 + Foxp3-7 peptide; secondary only 116, unstained 93.8

B1: EXT017-18 scFv phage clone (scFv)
scFv: QAVLTQPPSASGTRGQRVTIS[sequence of about 80 residues omitted]VFGTGTKVTVLGSRGGGGSGGGGSGGGGSLEMAEVQLVQSGAEVKKPGTSVKVSCKASGYTFSNYYIHWVRQAPGQGLEWMGAINPSVGTTTYAQNFQGRVTMTSDTSTSTVYMELSSLTSEDTAVYYCARDWWGQMMYDGWGQGTLVTVSSTSGQAGQHHHHHHGAYPYDVPDYAS
notes: full-length scFv with His+HA tags; also called EXT017-18 phage; phage clone #18
With B1 the MFI [1] was 90.6, the binding result [2] was “no binding” and the “Median:FITC-A” value [3] was 139. For the same binder, the “Median:FITC-A” value [4] was 146, the “Median:FITC-A” value [5] was 1540 and the “Median:FITC-A” value [6] was 148. The “Median:FITC-A” value [7] was 139, the “Median:FITC-A” value [8] was 2790 and the “Median:FITC-A” value [9] was 117. It also gave an MFI [10] of 143, an MFI [11] of 99.1 and an MFI [12] of 5150. It also gave an MFI [13] of 97.3, an MFI [14] of 95.8 and an MFI [15] of 6600. The MFI [16] was 25900, the MFI [17] was 95.4 and the “Median:FITC-A” value [18] was 761.
